The source gives no read counts; variants with many changes may rest on few reads.
B1: LINE1-mini (parent)
chain: GGCAGAGCUCAACACAGCGUGGCAAAGUGGCUGUGGCUAGACUGCC

Variants of: B1
Test: self-cleavage, relative activity (ratio to wild type); higher = more cleavage; in vitro, sequencing; the parent is a self-cleaving ribozyme

Variant	self-cleavage
G5A A14G A16G U32C	0.08
G5A C18U G40A A41U	0.06
G5C C13G C23A G27U C31A C45U	0.01
G5A C10U A11G G33C	0.01
G5A C13G A24G	0.21
G5A A11U C23U G35C G36A	0
G5C A6U G21U C46U	0.02
G5A G17C G22C C46U	0.04
G5A G7A A14U U34G	0.3
G5A U9A U20G G40U G44U	0.28
G5C C15G G22A C23A A25C C42U	0.01
G5A A12G C31U G36A C45A	0.05
G5A G27U G36A G40A	0.21
G5C C10A G21C C23A A24U C45G	0.02
G5A C8U G21C G36A	0.31
G5C C18U G22C G36C C37U	0.02
G5C C10U A12U G27A U34A	0.01
G5A C8U C18U G22C	1.68
G5C C13U A25G G36A	0.07
G5C A6U C15G A26C U43C	0
G5A A26G C37A	0.11
G5A A26G C37U	0.01
G5A C10G A39G	0.02
G5A C10A U32C G40A	0.02

Variant	self-cleavage
G5A C15A G19U A41G	0.01
G5C C10A A11U G17U G19C G27C	0.02
G5A A6U C13G A25U	0.05
G5C C15A G27A	0.03
G5C C10A A24U A39U	0.02
G5A A11C C42A	0
G5C A6U C10A A41U U43G	0.01
G5A C15A C45G C46A	0.02
G5C A11C C13A A39C	0.06
G5C C13U A24G A39G	0.07
G5C C8U A14C G17C G21C A25G G30U	0.22
G5A A6U A24C C37A	0.02
G5A C8U U9A A14U G40U	0.09
G5A G19C C23U A25U	0.03
G5A C18A C31G	0.03
G5A G29U G30U	0.04
G5C C23G A39G	0.01
G5C C18U G36C	0.03
G5A C23U U32A G35C C37U G40C	0.05
G5A U20A G35U U43G	0.02
G5C C18U G19U C23U G30U U32A C37G G40U	0
G5A A14U C15G C23U A24C	0.3
G5A G7U A12G G19C G29A	0.09
G5A C13U A24G C31G G35A	0.04

Variant	self-cleavage
G5A C10U A11G G29U C42A	0.01
G5A A26G G29U G36U	0.11
G5A C8U A24G	0.5
G5A A6U U43A	0.02
G5A G40U C45A	0.11
G5C A14C G36A C46A	0.03
G5A A14U U34G G35A G44A	0.01
G5C A6G A12G C37A G44U	0.03
G5A G7U C13U	1.85
G5C C8A A11U G36U	0
G5A G7U U9A C13A C18U	0.04
G5A C8G G27C C31U	0.02
G5C C18A C31G C42G	0.05
G5A C10U C15A C18U G36A	0.08
G5C A11C A24U	0.01
G5A G7C A12G C18G A26G G27A A41C C42G	0.17
G5C C8A G30A	0.38
G5C A16G A24G G27U G40C	0.36
G5A C8A U9G	0.06
G5C A25G A26U G35U	0.03
G5A A12C G29U	0.07
G5A C10G G44U	0.02
G5C A24C G27A C45G C46U	0.07
G5C C8U G40U U43G	0.18

Variant	self-cleavage
G5A C8U C15G	0.58
G5C C10A U28C G30C C42U	0.01
G5A C18U G33A	0.04
G5A C10A C31G	0.03
G5A G30C U34G A39G	0.12
G5A C13U A24U G44A	0.06
G5A G36C C42U	0.09
G5A C15A G21U	0.03
G5A C10G G19A C23A G44A	0.01
G5A G30A U43A G44U C46A	0.02
G5C C23A U34A G36C C37G	0.02
G5A G22A G29C	0.11
G5A A24C G33U U34C	0.08
G5C C10A C18G G22U	0.02
G5A A11G G33A	0.02
G5A G27U A39G G40A U43A	0.09
G5A A39U A41G G44U	0.07
G5C C13A G40A	0.07
G5C C10A A11U G35A	0.03
G5A G17U G21A G35A	0
G5C C13U G36A	0.05
G5A G19A C23U C31A	0.02
G5C C18A A39G C45U	0.03
G5A U9C U28G	0.04

Variant	self-cleavage
G5C C13U C15A A26G	0.02
G5C C10G C13U G30U	0.03
G5A G7A A14C A24U G30A G33C G36U A39U C42A	0.04
G5C C42A C45U	0.01
G5C A16U C23A U34C	0.92
G5A A6U C42A C45G	0.06
G5C C13U A14U U34A	0.06
G5A A16U C23U U43A G44A C45U	0.02
G5C A16G A24G A25C G27A	0.04
G5A G17U G22C G29U C31A	0.09
G5C C10U U20A	0.03
G5C C8A G30C G40U	0.09
G5A U20A G30U C46U	0.03
G5C C8G C10U C13A A14C A41U	0.06
G5C C10A A11C A14C C46U	0.02
G5A G17U U43C	0.03
G5A C8U C10U C15A G21U U34C	0.04
G5A A12U G27U G35U	0.04
G5A G17C A25U U32G	0.04
G5A C10G C18G A26G C37A G44C	0
G5A G22C U34A G35U	0.06
G5A G30C U43G	0.02
G5A C8U C10G A39U	0.04
G5A U9A G17C A24G G33A	0.19

Variant	self-cleavage
G5A A12U A25C G36A G40C C42U U43C	0.01
G5A G19C A25U G35A G40U	0.12
G5C C15G G22U	0.02
G5A A12U G17A C18G C31G	0
G5C A6C A16C A41C	0.07
G5A A25U G30C C45A	0.02
G5A A6G C8A A14G A24G U34A A41U	0.46
G5A U9A A14C	0.11
G5A C8G A14G C23A G29U C46U	0.02
G5C C31A G44U	0.03
G5A U20A C42A	0.2
G5A U20A G22A G29A U32A G36A	0.16
G5A C15U A25C G29A G33C	0.03
G5C A11G G33U G40U	0.01
G5A C10A G35C	0
G5C A11G G29A U32C C42U	0.04
G5A G22U A41U	0.22
G5A A6U U9A C15U A26C C37A	0.13
G5A C13G U32A U38G	0.02
G5C C15U C23U U28C	0.02
G5C C23A G27C A39C	0.04
G5A C10U A12U U28G C31U G35A	0.04
G5A A6U C23A G35U	0.14
G5A G7A A11C	0.02

Variant	self-cleavage
G5A A6C G35C	0.03
G5A G7A A26U	0.53
G5C C13G G17U G21U U28A C37U U43A	0.02
G5A A12G G17U G40C	0.06
G5A G7A A12C G40C C42G C45U	0.02
G5A G7C G21U	0.12
G5A G29A G35U	0.04
G5A C15A A25U C45A C46A	0.36
G5A G7A G17C A39C A41U C42G	0.26
G5A C8A C18G	0.23
G5A G7A U20C A24U C46U	0.3
G5A C10U G19U G22A	0.09
G5A G17U U20G G33U G35A	0.03
G5A A6U G21U C42A	0.06
G5A G7A A12C G40A	0.11
G5A C8A A12U U34C G35U	0.47
G5A G7A G33U G40U G44C	0.22
G5A C8G C23U G40U	0.02
G5A C15A G36C G40U	0.01
G5A G17U G27U C42A	0.03
G5C A12G G22A C23A G30U	0.02
G5A C23G G44U	0.12
G5C A6U U9A	0.66

From the RNAGym collection of RNA variant scans (doi:10.7554/elife.90254)
